Reference: a collection of fitness landscapes (doi:10.1126/science.1257360)
The other results are listed elsewhere or left out.

B1: PhoQ; a variant is named by its letters at X, in order, P23837 (parent)
chain: MKKLLRLFFPLSLRVRFLLATAAVVLVLSLAYGMVALIGYSVSFDKTTFRLLRGESNLFYTLAKWENNKLHVELPENIDKQSPTMTLIYDENGQLLWAQRDVPWLMKMIQPDWLKSNGFHEIEADVNDTSLLLSGDHSIQQQLQEVREDDDDAEMTHSVAVNVYPATSRMPKLTIVVVDTIPVELKSSYMVWSWFIYVLSANLLLVIPLLWVAAWWSLRPIEALAKEVRELEEHNRELLNPATTRELTSLVRNLNRLLKSERERYDKYRTTLTDLTHSLKTPLXXLQXXLRSLRSEKMSVSDAEPVMLEQISRISQQIGYYLHRASMRGGTLLSRELHPVAPLLDNLTSALNKVYQRKGVNISLDISPEISFVGEQNDFVEVMGNVLDNACKYCLEFVEISARQTDEHLYIVVEDDGPGIPLSKREVIFDRGQRVDTLRPGQGVGLAVAREITEQYEGKIVAGESMLGGARMEVIFGRQHSAPKDE

Variants of: B1
Assay: enrichment ratio after two sorts for PhoP signalling (ratio (wild type AVST 3.29)); higher = more functional
Settings: with PhoP (E. coli)

Variant | enrichment ratio
LFFF | ≤ 0.25
NSYP | 1.33
HMKR | ≤ 0.25
KTKA | ≤ 0.25
LCEL | ≤ 0.25
WICG | ≤ 0.25
TRDP | ≤ 0.25
ARTH | ≤ 0.25
VEME | ≤ 0.25
STQR | ≤ 0.25
YWMP | ≤ 0.25
VIMD | ≤ 0.25
IFNF | ≤ 0.25
KHTE | ≤ 0.25
DIWH | ≤ 0.25
WKRG | ≤ 0.25
SFVR | ≤ 0.25
SVAV | 7.92
GHGV | ≤ 0.25
PNPM | ≤ 0.25
NMHE | ≤ 0.25
IKES | ≤ 0.25
DSSD | ≤ 0.25
PMCQ | ≤ 0.25

Variant | enrichment ratio
SCLV | 9.82
REER | ≤ 0.25
ETVQ | ≤ 0.25
FTFV | ≤ 0.25
ANLT | 4.56
DTMC | ≤ 0.25
YRWC | ≤ 0.25
PLWE | ≤ 0.25
LQST | ≤ 0.25
QDES | ≤ 0.25
PPLG | ≤ 0.25
NMFI | ≤ 0.25
VTEI | ≤ 0.25
QIHR | ≤ 0.25
YSYA | ≤ 0.25
NKER | ≤ 0.25
KGDA | ≤ 0.25
SVQN | ≤ 0.25
GMST | 0.716
AHMV | ≤ 0.25
HTNW | ≤ 0.25
QDPS | ≤ 0.25
AFKD | ≤ 0.25
EFLE | ≤ 0.25

Variant | enrichment ratio
HMGE | ≤ 0.25
DLYK | ≤ 0.25
LWCQ | ≤ 0.25
YHTL | ≤ 0.25
QSHS | ≤ 0.25
SASC | 8.6
EWHP | ≤ 0.25
IGIM | ≤ 0.25
DITY | ≤ 0.25
MSLH | ≤ 0.25
MITS | ≤ 0.25
MVYE | ≤ 0.25
LVMT | ≤ 0.25
PVIH | ≤ 0.25
WCLI | ≤ 0.25
FQRK | ≤ 0.25
FNVN | 1.2
VKKA | ≤ 0.25
VNVS | 0.476
GSTY | 0.758
VWYP | ≤ 0.25
HWFP | ≤ 0.25
QIRI | ≤ 0.25
PGTF | ≤ 0.25

Variant | enrichment ratio
NQIV | ≤ 0.25
KTWR | ≤ 0.25
GWSP | ≤ 0.25
QISQ | 4.86
KDWS | ≤ 0.25
IFND | ≤ 0.25
VNQF | ≤ 0.25
NVGF | ≤ 0.25
DQVA | ≤ 0.25
SGIQ | 11.9
QSFI | 4.06
VIVC | ≤ 0.25
LVTH | ≤ 0.25
YKVY | ≤ 0.25
DMNY | ≤ 0.25
MTHA | ≤ 0.25
SLVD | ≤ 0.25
LINN | ≤ 0.25
EGGA | ≤ 0.25
HEGA | ≤ 0.25
RINK | ≤ 0.25
MHSD | ≤ 0.25
LCPL | ≤ 0.25
NAHQ | ≤ 0.25

Variant | enrichment ratio
IIEL | ≤ 0.25
GPIM | ≤ 0.25
YENW | ≤ 0.25
QLPA | ≤ 0.25
RDAR | ≤ 0.25
MNLD | ≤ 0.25
NNVW | ≤ 0.25
RDPA | ≤ 0.25
TDPQ | ≤ 0.25
ISVC | ≤ 0.25
VEIH | ≤ 0.25
AWVR | ≤ 0.25
SFVI | ≤ 0.25
QCDW | ≤ 0.25
PASS | ≤ 0.25
PCFN | ≤ 0.25
PRKS | ≤ 0.25
DHEW | ≤ 0.25
DHVV | ≤ 0.25
YIVN | 0.608
MELT | 5.98
FWKW | ≤ 0.25
GSSS | 1.42
TLKN | ≤ 0.25

Variant | enrichment ratio
DSEN | ≤ 0.25
DANV | ≤ 0.25
YSWS | ≤ 0.25
TSDR | ≤ 0.25
RPFK | ≤ 0.25
HQYK | ≤ 0.25
HYLK | ≤ 0.25
HAYS | ≤ 0.25
FDRW | ≤ 0.25
CTMT | ≤ 0.25
HIRD | ≤ 0.25
ECRS | ≤ 0.25
MRPD | ≤ 0.25
FHQS | ≤ 0.25
WTRH | ≤ 0.25
DFPQ | ≤ 0.25
RCIM | ≤ 0.25
EQFQ | ≤ 0.25
NYID | ≤ 0.25
SVKC | ≤ 0.25
GYPI | ≤ 0.25
SQRS | ≤ 0.25
PLPV | ≤ 0.25
IIMQ | ≤ 0.25

Variant | enrichment ratio
NKLS | ≤ 0.25
DILM | ≤ 0.25
IIQK | ≤ 0.25
NPTF | ≤ 0.25
NDAL | ≤ 0.25
AYRE | ≤ 0.25
EFMH | ≤ 0.25
YSWH | ≤ 0.25
MDDA | ≤ 0.25
WAHL | ≤ 0.25
DLEA | ≤ 0.25
PYIH | ≤ 0.25
VREG | ≤ 0.25
IGMH | ≤ 0.25
HEWC | ≤ 0.25
IDAA | ≤ 0.25
PFWQ | ≤ 0.25
NDIR | ≤ 0.25
MYIY | ≤ 0.25
EHDH | ≤ 0.25
HFVY | ≤ 0.25
EFMM | ≤ 0.25
YSME | 1.23
PFMK | ≤ 0.25

Variant | enrichment ratio
GVMM | ≤ 0.25
FDDP | ≤ 0.25
TSSW | ≤ 0.25
QCRC | ≤ 0.25
PHYN | ≤ 0.25
DDHP | ≤ 0.25
ELAD | ≤ 0.25
EAHM | ≤ 0.25
LTPA | ≤ 0.25
KRFR | ≤ 0.25
RTTS | ≤ 0.25
VPIY | ≤ 0.25
HVNS | ≤ 0.25
TPRC | ≤ 0.25
RGYA | ≤ 0.25
KKSP | ≤ 0.25
CSNA | ≤ 0.25
STHT | ≤ 0.25
VHCK | ≤ 0.25
FPAG | ≤ 0.25
IGFR | ≤ 0.25
DFWA | ≤ 0.25
GFNQ | ≤ 0.25
LMWR | ≤ 0.25

Variant | enrichment ratio
YEGI | ≤ 0.25
IKLV | ≤ 0.25
YMFC | ≤ 0.25
VFYT | ≤ 0.25
FFIL | ≤ 0.25
VFYH | ≤ 0.25
VNSG | 1.9
WKIQ | ≤ 0.25
LMAN | ≤ 0.25
SGDE | ≤ 0.25
NRRA | ≤ 0.25
FPDG | ≤ 0.25
KCVW | ≤ 0.25
WFVG | ≤ 0.25
WGRD | ≤ 0.25
TEVD | ≤ 0.25
PRRY | ≤ 0.25
PLVD | ≤ 0.25
AMIF | ≤ 0.25
ETSM | ≤ 0.25
IGHI | ≤ 0.25
NEIF | ≤ 0.25
IRRN | ≤ 0.25
WHDY | ≤ 0.25

Variant | enrichment ratio
PGIR | ≤ 0.25
SDQP | ≤ 0.25
RAQP | ≤ 0.25
MSRQ | ≤ 0.25
EVDW | ≤ 0.25
DDSA | ≤ 0.25
DVRC | ≤ 0.25
QKGV | ≤ 0.25
KGLH | ≤ 0.25
HTAA | ≤ 0.25
NRGE | ≤ 0.25
SEVD | 8.74
TQKD | ≤ 0.25
DHII | ≤ 0.25
ETKA | ≤ 0.25
RDGL | ≤ 0.25
QQTP | ≤ 0.25
FWMG | ≤ 0.25
EYPH | ≤ 0.25
YQMW | ≤ 0.25
VAGR | ≤ 0.25
RIII | ≤ 0.25
APPV | ≤ 0.25
FHCQ | ≤ 0.25

Variant | enrichment ratio
YKMN | ≤ 0.25
SKPA | ≤ 0.25
VGWH | ≤ 0.25
PEVW | ≤ 0.25
NNTV | 2.11
DYAS | ≤ 0.25
MCSL | 8.37
DQRM | ≤ 0.25
FLMG | ≤ 0.25
DGPV | ≤ 0.25
TMNM | 35
MQGV | ≤ 0.25
QNYM | ≤ 0.25
SSWM | 6.76
LMST | ≤ 0.25
HPGL | ≤ 0.25
HDAV | ≤ 0.25
GHDF | ≤ 0.25
DWFR | ≤ 0.25
GHWF | ≤ 0.25
PLKR | ≤ 0.25
PCPR | ≤ 0.25
LPFV | ≤ 0.25
LHYE | ≤ 0.25

Variant | enrichment ratio
YHYK | ≤ 0.25
VEED | ≤ 0.25
QKFD | ≤ 0.25
DSHE | ≤ 0.25
EVTM | ≤ 0.25
VEVC | 5.85
HFGR | ≤ 0.25
RDKT | ≤ 0.25
DNWC | ≤ 0.25
RIPG | ≤ 0.25
QKMP | ≤ 0.25
QENV | ≤ 0.25
INPE | ≤ 0.25
SCHF | ≤ 0.25
FPSQ | ≤ 0.25
QPAS | ≤ 0.25
DSGQ | ≤ 0.25
KSMG | ≤ 0.25
WLSR | ≤ 0.25
WLPH | ≤ 0.25
MECQ | ≤ 0.25
GLDE | ≤ 0.25
LTLH | ≤ 0.25
SHMR | ≤ 0.25

Variant | enrichment ratio
GMDI | ≤ 0.25
FWSI | ≤ 0.25
MDHL | ≤ 0.25
VRDQ | ≤ 0.25
YPGT | ≤ 0.25
YQTD | ≤ 0.25
VVGG | ≤ 0.25
PSSE | ≤ 0.25
MNPA | ≤ 0.25
PQAD | ≤ 0.25
EKES | ≤ 0.25
WCRM | ≤ 0.25
HEKC | ≤ 0.25
LCGC | ≤ 0.25
QISV | ≤ 0.25
VSQI | ≤ 0.25
SDTN | ≤ 0.25
MPSL | ≤ 0.25
